# Assay results from the supplement of paper PMC4967469.
# By IC50 is meant the dose at which the fit gives 50% viability; fits outside the tested doses are given as limits. AUC sums up the same curve from the lowest dose to the 256-fold higher top dose: 1 means no effect, lower means more sensitive. For some assays here: An inferred top dose is not printed in the source and was worked back from the curve model. For some assays here: An entry number marks a drug with two screens in the source, which often give different values.
# What was measured:
# Test in all cases: Viability of human cancer cell lines after 72 h of drug (GDSC screen)
# KU-55933 = compound: O=c1cc(-c2cccc3c2Sc2ccccc2S3)oc(N2CCOCC2)c1 [KU-55933]; conditions: top dose 10 µM
# Experimental: (§1)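 Human cancer cell lines in 384-well plates, medium with 10% serum, drug for 72 h over a 256-fold dose range (nine 2-fold or five 4-fold steps up to the top dose). Adherent lines were fixed and stained with the nucleic acid dye Syto60, suspension lines read with resazurin; signal relative to control wells, capped at 0 and 100%. One two-parameter sigmoid per drug and line, fitted in a mixed model over all curves with the slope shared within a line.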
# MPS-1-IN-1 = compound: COc1cc(N2CCC(O)CC2)ccc1Nc1cc(Nc2ccccc2S(=O)(=O)C(C)C)c2cc[nH]c2n1 [MPS-1-IN-1]; conditions: top dose 20 µM; top dose inferred
# Experimental: as §1
# GSK269962A = compound: CCn1c(-c2nonc2N)nc2cnc(Oc3cccc(NC(=O)c4ccc(OCCN5CCOCC5)cc4)c3)cc21 [GSK269962A]; conditions: top dose 5 µM; screen: GDSC drug entry 1192; top dose inferred
# Experimental: as §1
# QL-X-138 = compound: C=CC(=O)Nc1cc(-n2c(=O)ccc3cnc4ccc(-c5cn[nH]c5)cc4c32)ccc1C [QL-X-138]; conditions: top dose 10.24 µM; top dose inferred
# Experimental: as §1
# CHIR-99021 = compound: Cc1cnc(-c2cnc(NCCNc3ccc(C#N)cn3)nc2-c2ccc(Cl)cc2Cl)[nH]1 [CHIR-99021]
# Experimental: as §1
# CP466722 = compound: COc1cc2ncnc(-n3nc(-c4ccccn4)nc3N)c2cc1OC [CP466722]; conditions: top dose 16 µM; top dose inferred
# Experimental: as §1
# Cytarabine = compound: Nc1ccn([C@@H]2O[C@H](CO)[C@@H](O)[C@@H]2O)c(=O)n1 [Cytarabine]; conditions: top dose 2 µM
# Experimental: as §1
# ABT-869 = compound: Cc1ccc(F)c(NC(=O)Nc2ccc(-c3cccc4[nH]nc(N)c34)cc2)c1 [ABT-869]; conditions: top dose 1.024 µM; top dose inferred
# Experimental: as §1
# ABT-888 = compound: C[C@]1(c2nc3c(C(N)=O)cccc3[nH]2)CCCN1 [ABT-888]; conditions: top dose 5 µM; top dose inferred
# Experimental: as §1
# (5Z)-7-Oxozeaenol = compound: COc1cc(O)c2c(c1)/C=C/C[C@H](O)[C@H](O)C(=O)/C=C\C[C@H](C)OC2=O [(5Z)-7-Oxozeaenol]; conditions: top dose 10 µM; top dose inferred
# Experimental: as §1
# Thapsigargin = compound: C/C=C(/C)C(=O)O[C@H]1C(C)=C2[C@H]([C@@H]1OC(=O)CCCCCCC)[C@@](C)(OC(C)=O)C[C@H](OC(=O)CCC)[C@@]1(O)[C@H]2OC(=O)[C@@]1(C)O [Thapsigargin]; conditions: top dose 0.512 µM; top dose inferred
# Experimental: as §1
# Zibotentan = compound: COc1nc(C)cnc1NS(=O)(=O)c1cccnc1-c1ccc(-c2nnco2)cc1 [Zibotentan]; conditions: top dose 20 µM; top dose inferred
# Experimental: as §1
# [1] = top dose 2.56 µM, screen: GDSC drug entry 154
# [2] = top dose 10 µM, screen: GDSC drug entry 1241, top dose inferred
Cell Line,AUC (KU-55933),IC50 (KU-55933) [µM],AUC (MPS-1-IN-1),IC50 (MPS-1-IN-1) [µM],AUC (GSK269962A),IC50 (GSK269962A) [µM],AUC (QL-X-138),IC50 (QL-X-138) [µM],AUC (CHIR-99021; [1]),IC50 (CHIR-99021; [1]) [µM],AUC (CHIR-99021; [2]),IC50 (CHIR-99021; [2]) [µM],AUC (CP466722),IC50 (CP466722) [µM],AUC (Cytarabine),IC50 (Cytarabine) [µM],AUC (ABT-869),IC50 (ABT-869) [µM],AUC (ABT-888),IC50 (ABT-888) [µM],AUC ((5Z)-7-Oxozeaenol),IC50 ((5Z)-7-Oxozeaenol) [µM],AUC (Thapsigargin),IC50 (Thapsigargin) [µM],AUC (Zibotentan),IC50 (Zibotentan) [µM]
"COLO-679 (melanoma, adherent)",0.978,> 10,0.97,> 20,0.916,> 5,0.845,8.72,0.984,> 2.56,0.969,> 10,0.855,15.3,0.816,1.28,0.983,> 1.02,0.985,> 5,0.151,0.0438,0.233,0.00481,0.984,> 20
"COLO-680N (oesophagus, adherent)",0.962,> 10,0.986,> 20,0.98,> 5,0.786,5.33,0.986,> 2.56,0.975,> 10,0.876,> 16,0.924,> 2,0.98,> 1.02,0.98,> 5,0.796,5.68,0.376,0.0137,0.985,> 20
"COLO-783 (melanoma, adherent)",0.948,> 10,0.961,> 20,0.99,> 5,0.96,> 10.2,0.989,> 2.56,0.784,4.06,0.98,> 16,0.969,> 2,0.987,> 1.02,0.991,> 5,0.935,> 10,0.569,0.049,0.99,> 20
"CP50-MEL-B (melanoma, adherent)",0.982,> 10,0.894,> 20,0.947,> 5,0.918,> 10.2,0.988,> 2.56,0.958,> 10,0.861,13.3,0.958,> 2,0.987,> 1.02,0.987,> 5,0.218,0.0943,0.347,0.0122,0.988,> 20
"CS1 (bone, adherent)",0.963,> 10,0.922,> 20,0.892,> 5,0.463,0.5,0.962,> 2.56,0.915,> 10,0.698,3.86,0.751,0.729,0.984,> 1.02,0.983,> 5,0.579,1.05,0.365,0.0129,0.978,> 20
"Ca9-22 (head and neck, adherent)",0.918,> 10,0.891,> 20,0.925,> 5,0.797,4.42,0.984,> 2.56,0.962,> 10,0.899,> 16,0.655,0.324,0.984,> 1.02,0.977,> 5,0.39,0.319,0.362,0.0137,0.986,> 20
"CaR-1 (large intestine, adherent)",0.935,> 10,0.975,> 20,0.822,> 5,0.864,> 10.2,0.976,> 2.56,0.968,> 10,0.85,> 16,0.939,> 2,0.967,> 1.02,0.968,> 5,0.659,2.17,0.395,0.0143,0.977,> 20
"Calu-3 (lung adenocarcinoma, adherent)",0.978,> 10,0.937,> 20,0.906,> 5,0.728,3.43,0.983,> 2.56,0.977,> 10,0.807,10.9,0.885,> 2,0.983,> 1.02,0.969,> 5,0.824,8.07,0.784,0.279,0.983,> 20
"Caov-4 (ovary, adherent)",0.98,> 10,0.889,> 20,0.934,> 5,0.818,9.65,0.969,> 2.56,0.908,> 10,0.811,14,0.674,0.482,0.98,> 1.02,0.98,> 5,0.806,8.28,0.604,0.0706,0.977,> 20
"Capan-2 (pancreas, adherent)",0.971,> 10,0.779,10,0.983,> 5,0.877,> 10.2,0.982,> 2.56,0.916,> 10,0.958,> 16,0.885,> 2,0.973,> 1.02,0.985,> 5,0.802,6.17,0.112,< 0.002,0.98,> 20
